# Reference: PubChem BioAssay AID1479 (National Center for Advancing Translational Sciences (NCATS), 2009)
# Among all 280,000 compounds or so, about 820 (0.29%) were called active. Inconclusive results, whose numbers are uncertain, are shown with a selection of clear calls. The call rests on the fitted dose curve; in most records, active means well fitted curve in either direction with a large enough effect; inconclusive means small, poorly fitted or top-dose-only effect; inactive means flat fitted curve, though single readings scatter. No potency is given beside an inconclusive call; the fits are too rough.
# Experiment: Total Fluorescence Counterscreen for Inhibitors of the Interaction of Thyroid Hormone Receptor and Steroid Receptor Coregulator 2
# Conditions: TRb/SRC2 Texas Red total fluorescence interference; series mostly up to 106 µM; fluorescence change, negative = quenching: at the top concentration
# How it was run: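 Human TRb ligand-binding domain at 0.6 uM with 20 nM Texas Red SRC2 peptide in Tris buffer containing 1 uM T3 and 5% DMSO, incubated with compound 5 h at ambient temperature. Total fluorescence (555/632 nm) calculated as parallel + 2 × perpendicular.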
# On the % scale 0 is the no-effect control and ±100 the full control effect; potency means the concentration at half of the fitted maximal effect; tags describe the fitted curve by direction and shape or compound fluorescence and quenching.
Compound,Potency,"fluorescence change, negative = quenching"
COc1ccc(OC)c(NC(=O)CN2C(=O)c3ccccc3Sc3ccc(C(=O)N4CCCC4)cc32)c1,active: 794 µM [quencher],–
COc1ccc(C(=O)/C=C/c2ccc(OC)c(COc3ccccc3F)c2)cc1,"inconclusive [falling, partial curve, poor fit]",–
O=C(O)c1ccccc1-c1c2cc(Br)c(=O)c(Br)c-2oc2c(Br)c(O)c(Br)cc12,active: 28.2 µM [fluorescent],–
CCOC(=O)/C(C#N)=C/c1ccc(OC(=O)c2ccco2)c(OCC)c1,–,inactive: 2.74%
Clc1ccc(CN=C(Nc2ccccc2)NC2CCCCC2)cc1,"inconclusive [rising, single point]",–
O=C(N/N=C/c1cccc(O)c1)c1cc(-c2ccc3c(c2)OCO3)n[nH]1,"inconclusive [quencher, partial curve]",–
COc1cc(O)c2c(=O)c(O)c(-c3ccc(O)c(O)c3)oc2c1,active: 50.1 µM [quencher],–
CCCNC(=O)C1CCN(c2ncnc3c2nc2n3CCCCC2)CC1,–,inactive: 3.64%
CC(N)(Cc1ccc(O)c(O)c1)C(=O)O (stereo not given),–,inactive: 1.52%
COc1ccc(-c2c(O)c3c(OC)c4c(cc3oc2=O)OC(C)(C)C=C4)cc1,"inconclusive [falling, full curve, poor fit]",–
COc1ccc(C)cc1NC(=O)N1CCN(c2cc(-c3noc(C)n3)ccc2C)CC1,"inconclusive [quencher, full curve]",–
CCn1c(=O)c(NC(=O)c2ccccc2)c2n(c1=S)CCCCC2,–,inactive: 0.751%
CCC(=O)N1CCCc2cc(S(=O)(=O)N3CCC(C(=O)Nc4ccccc4CC)CC3)ccc21,"inconclusive [quencher, partial curve]",–
Cc1ccc2c(CC(=O)N(Cc3ccc(Cl)cc3)Cc3ccco3)coc2c1,active: 1.12 µM [quencher],–
COc1cc(C2c3c(oc4ccc(C)cc4c3=O)C(=O)N2Cc2ccccc2)ccc1O (stereo not given),"inconclusive [falling, partial curve, poor fit]",–
Cc1cccc(OCC(=O)Nc2ccc(Cl)c(-c3nc4ccccc4[nH]3)c2)c1,–,inactive: -2.33%
O=C(NCCCN1CCN(c2ccc(F)cc2)CC1)c1sc2ncccc2c1-n1cccc1,–,inactive: -7.26%
Cc1cccc(C(=O)Nc2cccc(C(=O)N3CCOCC3)c2)c1,–,inactive: -2.51%
C=Cc1ccc(CSc2nnc(C)n3c2cc2occc23)cc1,–,inactive: -1.13%
COC(=O)c1c(C)sc(-c2c(-c3ccc4c(c3)OCCO4)[nH]c3[nH]c(=O)[nH]c(=O)c23)c1O,"inconclusive [falling, partial curve, poor fit]",–
Cc1ccc(/C=N/NC(=O)CCn2nc(C)cc2C)c(C)c1,–,inactive: -0.711%
COc1ccc(CCNC(=O)c2ccc(-n3c(C)cc4c3CCCC4)cc2)cc1OC,"inconclusive [quencher, full curve]",–
COc1ccc(C(=O)N2N=C(c3ccccc3)CC2(O)C(F)(F)F)cc1 (stereo not given),–,inactive: -0.482%

Compound,Potency,"fluorescence change, negative = quenching"
O=C(Nc1ccc2nc(SCC(=O)N3CCCC3)sc2c1)c1ccc(Br)cc1,"inconclusive [falling, partial curve, poor fit]",–
Cc1ccc(OCC(=O)Nc2cc(-c3nc4ccccc4[nH]3)ccc2C)c(C)c1,"inconclusive [quencher, full curve]",–
O=C(Nc1ccc2c(c1)OCCO2)c1cccc2nc3ccccc3nc12,–,inactive: -6.34%
O=Cc1cc(N=Nc2cccc(C(=O)O)c2)ccc1O,"inconclusive [quencher, partial curve]",–
Cc1cc2ccccc2n1CCNC(=O)c1ccc(S(=O)(=O)N2CCCCC2)cc1,active: 44.7 µM [fluorescent],–
CC(N)(C(=O)O)c1ccc(P(=O)(O)O)cc1 (stereo not given),–,inactive: 0.0979%
CCC(=O)OCCNc1cc(SCCC(=O)OC)c2nonc2c1[N+](=O)[O-],"inconclusive [falling, partial curve, poor fit]",–
Cc1nnc(NC(=O)CSc2nccn2-c2ccc(Cl)cc2)s1,"inconclusive [falling, partial curve, poor fit]",–
CCOc1ccc(-n2nc3ccc(NC(=O)COc4ccccc4C)cc3n2)cc1,"inconclusive [quencher, full curve]",–
CCOC(=O)c1c(NC(=O)c2cc(-c3ccc(Br)cc3)on2)sc(C)c1C,"inconclusive [quencher, full curve]",–
CC(Oc1ccccc1F)C(=O)N1CCC(c2nc3ccccc3o2)CC1 (stereo not given),"inconclusive [falling, full curve, poor fit]",–
CCOc1ccc(C(=O)Nc2cc(-c3nc4ccccc4[nH]3)ccc2Cl)cc1[N+](=O)[O-],"inconclusive [quencher, partial curve]",–
COc1ccc(-c2noc(CSc3nnc(-c4ccncc4)n3-c3ccc(OC)cc3)n2)cc1,active: 0.251 µM [quencher],–
O=c1cc(-c2ccccc2)nc(SCc2nc(-c3cccc(C(F)(F)F)c3)no2)[nH]1,–,inactive: -1.29%
O=C(NCCCc1ccccc1)c1ccc2c(c1)sc1nc(-c3ccc(F)cc3)cn12,"inconclusive [falling, full curve, poor fit]",–
Cc1ccc2cc(C#N)c(SCC(=O)NNC(=O)Cc3ccccc3)nc2c1,–,inactive: -0.0803%
C/C(=N\NC(=O)c1ccccc1F)c1ccc2c(c1)Nc1ccccc1S2,–,inactive: 0.573%
COc1ccc(-c2cc(C(F)(F)F)n3nc(C(=O)Nc4cccc(Cl)c4Cl)cc3n2)cc1OC,active: 0.0355 µM [quencher],–
COc1ccc(CNC(=O)Cc2ccc(NC(=O)N3CCCCc4ccccc43)cc2)cc1,"inconclusive [quencher, full curve]",–
COc1ccc(NC(=O)CSc2nnc(-c3nonc3NC(C)=O)n2C)cc1Cl,"inconclusive [falling, full curve, poor fit]",–
O=c1ccc2ccc(O)c(O)c2o1,"inconclusive [falling, full curve, poor fit]",–
O=C(Nc1cc(-c2ccc(F)c(F)c2)no1)c1ccccc1F,"inconclusive [falling, full curve, poor fit]",–
